Out of some 390,000 compounds screened, about 4,000 (1%) were called active. Inconclusive results, whose numbers are uncertain, are shown with a selection of clear calls. Calls come from the whole dose curve; as a rule, active = well fitted inhibition curve with a large enough effect; inconclusive = small, poorly fitted or top-dose-only effect; inactive = no such curve, though single readings can be large or run the other way. Where the call is inconclusive, the potency comes from a doubtful curve fit.
biological target: Thioredoxin reductase 1, cytoplasmic (Rattus norvegicus) (UniProt O89049); test: qHTS Assay for Inhibitors of Mammalian Selenoprotein Thioredoxin Reductase 1 (TrxR1): qHTS; conditions: recombinant rTrxR1, NADPH fluorescence consumption, selenite substrate; series mostly up to 114 µM; note: nearly all actives have a fitted effect of over 65% in size
Outline: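 Rat TrxR1 (90 nM in the dispensed reagent) was pre-reduced with 400 uM NADPH for 5 min at room temperature, then incubated with compound for 15 min. After 400 uM selenite was added, NADPH fluorescence (Ex 340/Em 450 nm) was followed for 8 min.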
% is set by controls: 0 for no effect and ±100 for the full control effect; potency is the fitted concentration of half-maximal effect; tags give direction and shape of the fitted curve.

Sequence of UniProt O89049 (O89049 whole entry, looked up): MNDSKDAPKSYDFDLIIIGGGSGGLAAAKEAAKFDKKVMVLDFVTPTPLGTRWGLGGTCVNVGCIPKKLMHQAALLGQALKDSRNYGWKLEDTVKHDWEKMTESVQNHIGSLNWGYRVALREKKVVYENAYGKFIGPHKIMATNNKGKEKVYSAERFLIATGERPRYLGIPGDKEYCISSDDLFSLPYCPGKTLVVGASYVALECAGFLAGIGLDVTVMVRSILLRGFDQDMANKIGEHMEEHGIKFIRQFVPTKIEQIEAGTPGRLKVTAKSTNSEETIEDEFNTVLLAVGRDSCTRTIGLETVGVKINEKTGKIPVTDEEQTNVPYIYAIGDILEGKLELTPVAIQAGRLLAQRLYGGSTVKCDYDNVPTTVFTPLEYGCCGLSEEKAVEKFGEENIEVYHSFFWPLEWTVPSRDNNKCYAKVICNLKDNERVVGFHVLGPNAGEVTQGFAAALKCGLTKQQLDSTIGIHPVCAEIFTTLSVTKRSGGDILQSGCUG

Structure (SMILES) | Potency | activity change, negative = inhibition
O=C(O)C1C2CCC(C2)C1C(=O)NCc1ccco1 (stereo unspecified) | inactive | 
CCOC(=O)C1CCCN(Cc2nc(N)nc(Nc3ccc(C)cc3)n2)C1 (stereo unspecified) | inconclusive: 70.8 µM [inhibitor, partial curve] | 
COC(=O)C(CC(C)C)NC(=O)c1ccc([N+](=O)[O-])cc1 (stereo unspecified) | inconclusive: 12.6 µM [inhibitor, partial curve, poor fit] | 
NC(=O)CSC1=N/C(=C\c2ccco2)C(=O)N1c1ccc(OC(F)F)cc1 | inconclusive: 44.7 µM [inhibitor, full curve, poor fit] | 
COc1ccc(-n2nnc(C(=O)Nc3ccccc3F)c2N)cc1 | inactive | 
Cc1nc2scc(-c3ccccc3)c2c(=O)n1N=C1C=CC(=O)C=C1 | active: 3.16 µM | 
Oc1ccccc1/C=N/Nc1nn[nH]n1 | inconclusive: 89.1 µM [inhibitor, single point] | 
O=C(c1ccc(-c2ccc([N+](=O)[O-])cc2)o1)N1CCN(S(=O)(=O)c2cccs2)CC1 | active: 44.7 µM | 
N#Cc1c(Sc2ncc(C(F)(F)F)cc2Cl)nsc1C/C=N\OCc1c(F)cccc1Cl | inconclusive: 50.1 µM [inhibitor, partial curve, poor fit] | 
O=C(CNC(=O)c1ccccc1)Oc1ccc([N+](=O)[O-])cc1 | inconclusive: 11.2 µM [inhibitor, partial curve, poor fit] | 
COc1cccc(Nc2n[nH]c(=S)s2)c1 | inconclusive: 2.51 µM [inhibitor, full curve, poor fit] | 
CCNC1(C#N)CCN(Cc2ccccc2)CC1 | inconclusive: 2 µM [inhibitor, partial curve, poor fit] | 
Cc1ccccc1N=Cc1ccc[nH]1 | inactive | 
NC1CCN(O)C1=O (stereo unspecified) | inconclusive: 37.7 µM [inhibitor, single point] | 
COc1ccc(-c2cc(OC(=O)c3cccc(C)c3)c3c(C)oc(C)c3c(=O)c2)cc1 | inconclusive: 50.1 µM [inhibitor, partial curve] | 
CCSc1oc(-c2ccco2)nc1S(=O)(=O)c1ccc(F)cc1 | inconclusive: 14.1 µM [inhibitor, partial curve, poor fit] | 
O=C(NCC(=O)N1CCN(S(=O)(=O)c2ccc3c(c2)OCCO3)CC1)c1ccccc1Cl | inactive | 
Cc1ccc(S(=O)(=O)N2CCN(c3nc(-c4cccs4)nc4cccnc34)CC2)cc1 | inconclusive: 79.4 µM [inhibitor, single point] | 
CC(=O)Nc1ccc(C(=O)c2ccccc2)cc1 | inactive | 
CN(C)CCNC(=O)C1(O)c2cc(Br)ccc2NC(=O)N1c1ccc(Cl)cc1 (stereo unspecified) | inconclusive: 28.2 µM [inhibitor, full curve] | 
CCS(=O)(=O)c1oc(-c2ccc(F)cc2)nc1S(=O)(=O)c1ccc(Br)cc1 | active: 0.562 µM | 
CCCCN(CCCC)CCNC(=O)CN1C(=O)COc2ccc(S(=O)(=O)N3CCC(C)CC3)cc21 | inconclusive: 50.1 µM [inhibitor, partial curve] | 
CCOC(=O)c1nc2cc3n(c(C)c-2c1C)C(C)C(C)=C3C (stereo unspecified) | inconclusive: 31.6 µM [inhibitor, single point] | 
CC(=O)NCc1ccc(C(=O)CSc2nnc(C3CC3)n2C2CC2)cc1 | inactive | 

Structure (SMILES) | Potency | activity change, negative = inhibition
CC(=O)C1=C(c2ccc(Cl)c(Cl)c2)N(C(C)=O)n2cnnc2S1 | inconclusive: 25.1 µM [inhibitor, single point] | 
CCc1ccc(OCCCC(=O)Nc2ccc(N3CCCCC3)cc2)cc1 | inactive | 
S=c1[nH]nc(-c2n[nH]c3c2CCC3)n1/N=C/C=C/c1ccco1 | inconclusive: 25.1 µM [inhibitor, full curve] | 
CCCCC1(c2ccc(F)cc2)NC(=O)N(CC(=O)N2CCN(C(=O)c3ccco3)CC2)C1=O (stereo unspecified) | inconclusive: 50.1 µM [inhibitor, partial curve] | 
Cn1c(=O)c2c(-c3ccc(C(C)(C)C)cc3)n(CC3CCCO3)cc2n(C)c1=O (stereo unspecified) | inconclusive: 35.5 µM [inhibitor, partial curve] | 
COc1cc(-c2noc(C)c2C#Cc2ccc(N)cc2)cc(OC)c1OC | inactive | 
Cc1c(OCc2nn[nH]n2)ccc2c3c(c(=O)oc12)CCC(C)C3 (stereo unspecified) | inconclusive: 70.8 µM [inhibitor, single point] | 
O=c1[nH]c(C2CCN(S(=O)(=O)c3ccc(C(F)(F)F)cc3)CC2)nc2c1nnn2Cc1ccc(F)cc1 | inactive | 
Cc1c(Cl)cccc1NC(=O)CC(Cc1ccccc1)C(=O)O (stereo unspecified) | inactive | 
CC(Nc1nc(-c2ccc(F)cc2)cs1)c1nc2cc(Cl)c(Cl)cc2n1CCOCCO (stereo unspecified) | inconclusive: 3.98 µM [inhibitor, partial curve, poor fit] | 
C/C(=N\Nc1cccc2cccnc12)c1ccc(C)cc1 | inactive | 
COc1ccc(C(=O)NCCCn2ccnc2)cc1 | inactive | 
Cc1ccc(NC(=S)Nc2ccc3nc(-c4ccccn4)c(-c4ccccn4)nc3c2)cc1C | inconclusive: 39.8 µM [inhibitor, partial curve] | 
CCOC(=O)c1c(C)oc2ncnc(N3CCN(c4ccccc4)CC3)c12 | inactive | 
Cc1ccc(-c2cc3c(n2-c2ccc(F)cc2)CC(C)(C)CC3=O)cc1 | inactive | 
O=C1S/C(=C\C=C\c2ccco2)C(=O)N1c1ccc(O)cc1 | inconclusive: 15.8 µM [inhibitor, full curve] | 
COCCNC(=O)CSc1nnc(NC(=O)Nc2ccc(C)cc2)s1 | inactive | 
Cc1ccc(NC(=O)c2ccc([N+](=O)[O-])o2)cc1C | inconclusive: 11.2 µM [inhibitor, partial curve, poor fit] | 
Cc1noc(C)c1NC(=O)N(C)C[C@@H]1Oc2c(NC(=O)c3ccncc3)cccc2C(=O)N([C@H](C)CO)C[C@@H]1C | inconclusive: 15.8 µM [inhibitor, partial curve, poor fit] | 
Cc1ccn2c(=O)nc(SCC(=O)NCc3ccco3)nc2c1 | inconclusive: 56.2 µM [inhibitor, partial curve] | 
O=C(OCc1nnc(-c2ccccc2)o1)c1ccc(Cl)cc1 | inactive | 
O=C(N/N=C/c1cc(Cl)cc([N+](=O)[O-])c1O)C1CC1 | inactive | 
O=C(CSc1ccc(Cl)cc1)N/N=C/c1ccc([N+](=O)[O-])o1 | inconclusive: 14.1 µM [inhibitor, full curve] | 
CN(C)c1cccc(F)c1C(=O)NC(=O)Nc1ccc(Cl)cc1 |  | inactive: 13.9% [at 11.4 µM]

Structure (SMILES) | Potency | activity change, negative = inhibition
CNC(=O)c1c(NC(=O)c2ccc(S(=O)(=O)N3CCCC(C)C3)cc2)sc2c1CCC2 (stereo unspecified) | inconclusive: 25.1 µM [inhibitor, partial curve] | 
CC(=O)C1(O)Cc2c(O)c3c(c(O)c2C(OC2CC(N)C(O)C(C)O2)C1)C(=O)c1c(O)cccc1C3=O (stereo unspecified) | inactive | 
O=C(c1ccco1)N1CCN(C(=O)c2cc(-c3ccccn3)nc3ccccc23)CC1 | inconclusive: 22.4 µM [inhibitor, single point] | 
S=C(N/N=C1\CCc2ccccc21)NC1CCCCC1 | inactive | 
CC(=O)c1ccc(-c2ccc(C(=O)N(C)Cc3nc4ccccc4c(=O)[nH]3)o2)cc1 | inconclusive: 56.2 µM [inhibitor, partial curve] | 
COc1cc(C(=O)O/N=C2\C=CC(=O)C(C)=C2)cc(OC)c1OC | active: 2.82 µM | 
CCn1cc(C(=O)NCc2ccc(C)o2)c2cc(OC)c(OC)cc2c1=O | active: 22.4 µM | 
Cc1cccc(CSc2nc3c(c(-c4cccs4)c2C#N)CN(C)CC3)c1 | inconclusive: 44.7 µM [inhibitor, partial curve] | 
c1ccc2c(c1)ncn2-c1ncnc2sc3c(c12)CCCC3 | inactive | 
Cc1ccccc1NC(=O)CC1SC(=O)N(c2ccccc2)C1=O (stereo unspecified) | inconclusive: 22.4 µM [inhibitor, partial curve, poor fit] | 
C[C@H](CO)N1C[C@H](C)[C@H](CN(C)C(=O)Nc2ccc(C(F)(F)F)cc2)Oc2c(NC(=O)c3ccncc3)cccc2C1=O | active: 56.2 µM | 
Clc1ccc(-c2nc3ccccn3c2Nc2ccc3c(c2)OCCO3)s1 | inconclusive: 79.4 µM [inhibitor, partial curve, poor fit] | 
Cn1cnc([N+](=O)[O-])c1S(=O)(=O)Oc1cccc2ccccc12 | inconclusive: 0.0891 µM [inhibitor, full curve, poor fit] | 
CCOC(=O)N/N=C\C=C\c1ccco1 | inconclusive: 56.2 µM [inhibitor, single point] | 
Nc1cc(C(=O)O)c(N)c2c1C(=O)c1ccccc1C2=O | inactive | 
COc1ccc(NC(=O)c2sc3nc(C)c(C(=O)Nc4ccc(C)cc4C)c(-c4cccs4)c3c2N)cc1 | inconclusive: 70.8 µM [inhibitor, partial curve, poor fit] | 
O=C(NC(=S)NNC(=O)c1ccccc1O)c1ccc(F)cc1 | inconclusive: 44.7 µM [inhibitor, partial curve] | 
Cc1ccccc1CSc1cn(CC(=O)N2CCCC2)c2ccccc12 | inactive | 
CCCN(CCC)C(=O)CCS(=O)(=O)c1cccc2nsnc12 | inconclusive: 56.2 µM [inhibitor, single point] | 
CC(C)(C)c1ccc(C(=O)CC(Sc2ccc(Cl)cc2)C(=O)O)cc1 (stereo unspecified) | active: 56.2 µM | 
Cc1ccc(C)c(NC(=O)CSc2ccc(-c3ccco3)nn2)c1 | inconclusive: 8.91 µM [inhibitor, partial curve, poor fit] | 
Cc1ccc2occ(/C=N/NC(=O)c3ccccc3O)c(=O)c2c1 | inactive | 
O=C(OCc1nc2ccccc2s1)C1CCN(C2=NS(=O)(=O)c3ccccc32)CC1 | inconclusive: 89.1 µM [inhibitor, single point] | 

Reference: PubChem BioAssay AID588453 (National Center for Advancing Translational Sciences (NCATS), 2011)
